# Results: the supplement of paper PMC9046079
# Counter-ions that a name gives are not always drawn. ± gives the standard deviation of the averaged measurements. Some of the results follow.
# What was measured:
# [1] = test system: murine small intestinal organoids (ENR+CD Paneth differentiation); test: cellular ATP (CellTiter-Glo 3D) relative to plate median (log10 fold change); higher = more viable cells; details: 6 d
# [2] = test system: murine small intestinal organoids (ENR+CD Paneth differentiation); test: carbachol-stimulated secreted lysozyme activity relative to plate median (log10 fold change); higher = more Paneth cell lysozyme secretion; details: 6 d, carbachol 10 µM
# [3] = test system: murine small intestinal organoids (ENR+CD Paneth differentiation); test: basal (non-stimulated) secreted lysozyme activity relative to plate median (log10 fold change); higher = more Paneth cell lysozyme secretion; details: 6 d
# 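For basal (non-stimulated) secreted lysozyme activity relative to plate median in this document: ISC-enriched organoid precursors grown as 2.5D pseudo-monolayer on Matrigel, compound given on day 0 and day 3, plate values LOESS-normalized before median fold change, three murine donors.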
# 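For cellular ATP (CellTiter-Glo 3D) relative to plate median in this document: 2.5D pseudo-monolayer culture of ISC-enriched organoids partly embedded atop Matrigel, compound added on day 0 and again on day 3, per-plate LOESS correction before median fold change.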
Compound,cellular ATP (log10) ([1]; 0.08 µM),cellular ATP (log10) ([1]; 0.4 µM),cellular ATP (log10) ([1]; 2 µM),cellular ATP (log10) ([1]; 10 µM),carbachol-stimulated secreted lysozyme activity (log10) ([2]; 0.08 µM),carbachol-stimulated secreted lysozyme activity (log10) ([2]; 0.4 µM),carbachol-stimulated secreted lysozyme activity (log10) ([2]; 2 µM),carbachol-stimulated secreted lysozyme activity (log10) ([2]; 10 µM),basal (log10) ([3]; 0.08 µM),basal (log10) ([3]; 0.4 µM),basal (log10) ([3]; 2 µM),basal (log10) ([3]; 10 µM)
NC1(Cc2ccc(Cl)cc2)CCN(c2ncnc3[nH]ccc23)CC1,0.0952 ± 0.22,-0.0252 ± 0.034,0.127 ± 0.22,-0.175 ± 0.13,0.255 ± 0.2,0.0277 ± 0.064,-0.00021 ± 0.033,-0.239 ± 0.1,0.323 ± 0.12,-0.0177 ± 0.024,0.0727 ± 0.13,-0.15 ± 0.086
CC(C)NCC(O)COc1cccc2ccccc12 (centres undefined) [Propranolol HCl],0.126 ± 0.077,0.0178 ± 0.15,0.101 ± 0.23,0.115 ± 0.096,0.0951 ± 0.13,-0.00107 ± 0.027,0.064 ± 0.1,0.0195 ± 0.14,0.0282 ± 0.079,0.102 ± 0.14,0.0794 ± 0.076,0.0482 ± 0.11
CN(C)CCCCC(=O)Nc1ccc(NC(=S)NC(=O)c2ccc(C(C)(C)C)cc2)cc1 [Tenovin-6],-0.553 ± 1.3,-0.168 ± 0.34,-0.497 ± 0.48,-0.705 ± 0.69,-0.174 ± 0.35,0.0475 ± 0.0029,-0.21 ± 0.32,-0.259 ± 0.42,-0.0487 ± 0.17,0.0467 ± 0.016,-0.119 ± 0.19,-0.112 ± 0.19
COc1cc(Nc2ncc(F)c(Nc3ccc4c(n3)N(COP(=O)(O)O)C(=O)C(C)(C)O4)n2)cc(OC)c1OC [Fostamatinib (R788)],0.232 ± 0.23,-0.0516 ± 0.22,-0.231 ± 0.46,-0.881 ± 0.48,0.307 ± 0.063,0.253 ± 0.16,0.0551 ± 0.069,-0.422 ± 0.038,0.119 ± 0.12,-0.0249 ± 0.064,-0.0988 ± 0.057,-0.234 ± 0.093
O=C(c1cn(Cc2cncn2Cc2ccc(Br)cc2)cc1-c1cccc2ccccc12)N1CCOCC1,-0.0718 ± 0.077,-0.342 ± 0.47,-0.116 ± 0.45,-0.706 ± 0.49,-0.127 ± 0.088,-0.213 ± 0.13,-0.333 ± 0.044,-0.341 ± 0.049,-0.116 ± 0.032,-0.14 ± 0.059,-0.176 ± 0.11,-0.182 ± 0.14
Cc1cc(Nc2cc(CN3CCOCC3)c3nc(C)c(Cc4ccc(Cl)cc4F)n3n2)n[nH]1,0.108 ± 0.087,0.062 ± 0.3,0.181 ± 0.2,-0.831 ± 0.47,0.14 ± 0.0084,0.0757 ± 0.011,0.168 ± 0.17,-0.419 ± 0.05,0.132 ± 0.26,0.00378 ± 0.027,0.0679 ± 0.053,-0.28 ± 0.081
O=[N+]([O-])c1ccc2c(c1)S(=O)(=O)C=C2 [Stattic],0.00756 ± 0.29,0.0163 ± 0.2,0.0464 ± 0.11,0.00159 ± 0.28,0.0832 ± 0.21,0.139 ± 0.02,0.029 ± 0.13,0.00153 ± 0.086,0.0711 ± 0.13,0.00701 ± 0.069,0.046 ± 0.058,-0.00258 ± 0.045
Cc1ccc(-c2cc(C(F)(F)F)nn2-c2ccc(S(N)(=O)=O)cc2)cc1 [Celecoxib],-0.0344 ± 0.27,-0.299 ± 0.27,-0.118 ± 0.25,-0.128 ± 0.17,-0.0856 ± 0.15,-0.101 ± 0.23,-0.118 ± 0.17,-0.178 ± 0.0085,-0.0413 ± 0.055,-0.0532 ± 0.081,-0.0843 ± 0.038,-0.0994 ± 0.04
CCOc1ccc(Cc2cc([C@@H]3O[C@H](CO)[C@@H](O)[C@H](O)[C@H]3O)ccc2Cl)cc1 [Dapagliflozin],0.41 ± 0.26,0.254 ± 0.026,0.293 ± 0.11,0.301 ± 0.18,0.3158 ± 0.0022,0.152 ± 0.052,0.162 ± 0.2,0.138 ± 0.25,0.17 ± 0.099,0.0967 ± 0.064,0.159 ± 0.073,0.136 ± 0.089
COc1ccc2cc([C@H](C)C(=O)O)ccc2c1 [Naproxen],-0.0977 ± 0.2,-0.0678 ± 0.13,-0.588 ± 0.42,-1.28 ± 0.63,0.118 ± 0.16,0.103 ± 0.12,-0.263 ± 0.067,-0.306 ± 0.19,0.141 ± 0.13,0.107 ± 0.2,-0.0801 ± 0.081,-0.122 ± 0.14
O=C(O)c1cccc(-c2noc(-c3ccccc3F)n2)c1 [Ataluren (PTC124)],0.267 ± 0.14,-0.34 ± 0.91,-0.042 ± 0.31,0.00552 ± 0.2,0.103 ± 0.1,0.0921 ± 0.048,0.0895 ± 0.23,0.0328 ± 0.062,0.029 ± 0.077,0.0415 ± 0.11,0.131 ± 0.18,0.00879 ± 0.067
O=C1[C@H](Cc2ccc(O)cc2)N2C(=O)CCN(C(=O)NCc3ccccc3)[C@H]2CN1Cc1cccc2ccccc12,0.104 ± 0.18,0.104 ± 0.089,0.143 ± 0.043,-0.416 ± 0.4,0.153 ± 0.21,0.25 ± 0.22,0.0055 ± 0.046,-0.112 ± 0.082,0.0372 ± 0.073,0.0369 ± 0.042,0.0454 ± 0.044,-0.125 ± 0.04
